Experimental data: the BET-seq Pho4 binding data (Le et al. 2018)
The list shows a part of the results. These are noisy estimates, calculated here from bound and input reads.

These sequences were tested against T1, Pho4 (S. cerevisiae) (UniProt P07270) (assay: relative binding free energy (BET-seq); higher = weaker binding). Settings: reference: library average.
T1 sequence: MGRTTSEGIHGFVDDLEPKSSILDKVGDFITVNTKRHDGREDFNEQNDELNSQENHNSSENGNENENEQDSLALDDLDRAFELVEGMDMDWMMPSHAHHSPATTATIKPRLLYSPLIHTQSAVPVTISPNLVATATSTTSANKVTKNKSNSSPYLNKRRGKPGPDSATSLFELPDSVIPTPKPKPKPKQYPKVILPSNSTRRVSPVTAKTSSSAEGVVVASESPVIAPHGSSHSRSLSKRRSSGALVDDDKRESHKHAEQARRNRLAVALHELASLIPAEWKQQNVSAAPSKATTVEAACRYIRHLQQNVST

Sequence | relative binding free energy
CGGTGCACGTGCATGG | -0.1 kcal/mol
ATTTGCACGTGAGGGC | 0.2 kcal/mol
TCCTTCACGTGGGGTG | 0.18 kcal/mol
TGCGGCACGTGCATAG | -0.15 kcal/mol
GTTGTCACGTGTTACT | 0.17 kcal/mol
GGTACCACGTGAGTGG | 0.14 kcal/mol
GTAGTCACGTGCATTT | 0.12 kcal/mol
GGTAACACGTGATTAT | 0.05 kcal/mol
TGGGACACGTGCTGGG | 0.03 kcal/mol
TCTGGCACGTGAAGGG | 0.25 kcal/mol
TTGGCCACGTGGGAGG | -0.1 kcal/mol
TGAGACACGTGGGGAG | 0.01 kcal/mol
CGTTACACGTGGGCGG | -0.02 kcal/mol
TTTGCCACGTGGGATT | -0.06 kcal/mol
GAGCACACGTGGGTAG | -0.06 kcal/mol
GTGATCACGTGGTTGA | 0.1 kcal/mol
ATGTTCACGTGGTGTA | 0.05 kcal/mol
TCAGTCACGTGGAAGG | 0.21 kcal/mol
AGGAACACGTGGGTGA | -0.15 kcal/mol
TGTTTCACGTGATCAT | 0.28 kcal/mol
AGTCCCACGTGGGGGG | -0.28 kcal/mol

Sequence | relative binding free energy
TTGGCCACGTGTTTAT | -0.1 kcal/mol
ATTTGCACGTGGCGCT | -0.09 kcal/mol
GGGCGCACGTGTCTGG | -0.05 kcal/mol
ATTGGCACGTGACTTG | 0.05 kcal/mol
GGGGACACGTGTATTG | 0.03 kcal/mol
GAATGCACGTGGAGGA | 0.22 kcal/mol
CTGGACACGTGGAGAG | 0.08 kcal/mol
AGGCTCACGTGATTTG | 0.28 kcal/mol
AGTGGCACGTGCGTGC | -0.15 kcal/mol
AGCATCACGTGTGTTA | 0.14 kcal/mol
TAGATCACGTGTGGCA | 0.21 kcal/mol
GGCGGCACGTGGGTCA | -0.22 kcal/mol
AAGTTCACGTGGGTCG | 0.25 kcal/mol
TGTAGCACGTGACTGG | 0.01 kcal/mol
CTGGGCACGTGGCGGG | -0.13 kcal/mol
ATAAGCACGTGAGGAG | 0.13 kcal/mol
TTGGGCACGTGTCTAG | -0.19 kcal/mol
TGGCGCACGTGAAGGA | 0.04 kcal/mol
ATTGCCACGTGTGGGT | 0 kcal/mol
GCAATCACGTGGTTGT | 0.06 kcal/mol
CGCAGCACGTGGTGTG | -0.16 kcal/mol

Sequence | relative binding free energy
GGAAGCACGTGGTGAG | -0.07 kcal/mol
TTATGCACGTGGCGTA | -0.16 kcal/mol
TTACTCACGTGAGGTG | 0.22 kcal/mol
CGGATCACGTGTGCTT | 0.22 kcal/mol
TTCTCCACGTGTTATT | 0.14 kcal/mol
ATTGTCACGTGGGAGT | 0.05 kcal/mol
AGGGGCACGTGTAAGA | 0.06 kcal/mol
GGGTACACGTGGTACA | 0.08 kcal/mol
TAAGGCACGTGGAGGC | -0.13 kcal/mol
TCCGTCACGTGTTGGT | 0.02 kcal/mol
TGTTCCACGTGAATTT | 0.22 kcal/mol
TAGGACACGTGGTAAA | 0.15 kcal/mol
TTGATCACGTGTCTGA | 0.13 kcal/mol
GTACGCACGTGAAGGT | 0.23 kcal/mol
ATCTACACGTGGGTGG | 0 kcal/mol
CCGGGCACGTGGGGAG | -0.37 kcal/mol
GGGGCCACGTGTGGCT | 0.01 kcal/mol
TTGGCCACGTGGTGTG | -0.22 kcal/mol
GGGCCCACGTGGTAGG | -0.12 kcal/mol
CATAACACGTGTGGGT | 0.07 kcal/mol
ATTCGCACGTGATTTT | 0.05 kcal/mol
